# Source: the supplement of paper PMC8728848
# Some of the results follow.
# B1: BC2LB (Burholderia cenocepacia), B4EH85_BURCJ (protein)
# chain: MGSSHHHHHHSSGENLYFQGHMSQPFTHDDLYALLQLAGNDATAVQANGDQAVLDRMRQFMTAQLVEKLPQYDVFVDIATIPYSFDVGSWQNKVKTDAAGEVVACTVTWAGAPGVLPGAAAKFGVGAVVNYFSKATPH
# What was measured:
# Assay in all cases: glycan array binding signal (z-score within array); higher = stronger binding
# Conditions in all cases: glycan notation: IUPAC condensed, linker removed
# [1] = target: GlcNAc(b1-4)GlcNAc(b1-4)GlcNAc(b1-4)GlcNAc(b1-4)GlcNAc
# Method in brief: (§1)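 Arrays were curated from the Consortium for Functional Glycomics database, 3228 in total, and kept only where the protein sequence was available. Binding is expressed as a within-array Z-score. This score was averaged across arrays of the same protein sequence at different concentrations or buffers and across linkers, and negative values can be read as non-binding.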
# [2] = target: GlcNAc(b1-4)GlcNAc(b1-4)GlcNAc(b1-4)GlcNAc(b1-4)GlcNAc(b1-4)GlcNAc
# Method in brief: as §1
# [3] = target: GlcNAc(b1-4)[GlcNAc(b1-6)]GalNAc
# Method in brief: as §1
# [4] = target: GlcNAc(b1-6)Gal(b1-4)GlcNAc
# Method in brief: as §1
# GlcNAc(b1-6)GalNAc = target: GlcNAc(b1-6)GalNAc
# Method in brief: as §1
# [5] = target: GlcNAc6S(b1-3)Gal(b1-4)GlcNAc
# Method in brief: as §1
# Kdn(a2-3)Gal(b1-3)GalNAc = target: Kdn(a2-3)Gal(b1-3)GalNAc
# Method in brief: as §1
# Kdn(a2-3)Gal(b1-3)GlcNAc = target: Kdn(a2-3)Gal(b1-3)GlcNAc
# Method in brief: as §1
# Kdn(a2-3)Gal(b1-4)Glc = target: Kdn(a2-3)Gal(b1-4)Glc
# Method in brief: as §1
# Kdn(a2-3)Gal(b1-4)GlcNAc = target: Kdn(a2-3)Gal(b1-4)GlcNAc
# Method in brief: as §1
# [6] = target: Kdn(a2-3)Gal(b1-4)[Fuc(a1-3)]GlcNAc
# Method in brief: as §1
# Kdn(a2-6)Gal(b1-4)GlcNAc = target: Kdn(a2-6)Gal(b1-4)GlcNAc
# Method in brief: as §1
# [7] = target: Man(a1-2)Man(a1-2)Man(a1-3)Man
# Method in brief: as §1
# [8] = target: Man(a1-2)Man(a1-2)Man(a1-6)[Man(a1-3)]Man
# Method in brief: as §1
# Man(a1-2)Man(a1-3)Man = target: Man(a1-2)Man(a1-3)Man
# Method in brief: as §1
# [9] = target: Man(a1-2)Man(a1-3)[Man(a1-2)Man(a1-6)]Man
# Method in brief: as §1
# [10] = target: Man(a1-2)Man(a1-3)[Man(a1-2)Man(a1-6)]Man(a1-6)[Man(a1-2)Man(a1-2)Man(a1-3)]Man
# Method in brief: as §1
# [11] = target: Man(a1-2)Man(a1-3)[Man(a1-2)Man(a1-6)]Man(a1-6)[Man(a1-2)Man(a1-2)Man(a1-3)]Man(b1-4)GlcNAc(b1-4)GlcNAc
# Method in brief: as §1
# [12] = target: Man(a1-2)Man(a1-3)[Man(a1-6)]Man(a1-6)[Man(a1-2)Man(a1-3)]Man(b1-4)GlcNAc(b1-4)GlcNAc
# Method in brief: as §1
# [13] = target: Man(a1-2)Man(a1-6)[Man(a1-3)]Man(a1-6)[Man(a1-2)Man(a1-2)Man(a1-3)]Man
# Method in brief: as §1
# [14] = target: Man(a1-2)Man(a1-6)[Man(a1-3)]Man(a1-6)[Man(a1-2)Man(a1-2)Man(a1-3)]Man(b1-4)GlcNAc(b1-4)GlcNAc
# Method in brief: as §1
# Man(a1-3)[Man(a1-6)]Man = target: Man(a1-3)[Man(a1-6)]Man
# Method in brief: as §1
# [15] = target: Man(a1-3)[Man(a1-6)]Man(a1-6)[Man(a1-2)Man(a1-3)]Man(b1-4)GlcNAc(b1-4)GlcNAc
# Method in brief: as §1
# [16] = target: Man(a1-3)[Man(a1-6)]Man(a1-6)[Man(a1-3)]Man
# Method in brief: as §1
# [17] = target: Man(a1-3)[Man(a1-6)]Man(a1-6)[Man(a1-3)]Man(b1-4)GlcNAc(b1-4)GlcNAc
# Method in brief: as §1
# [18] = target: Man(a1-3)[Man(a1-6)]Man(b1-4)GlcNAc(b1-4)GlcNAc
# Method in brief: as §1
# [19] = target: Man(a1-3)[Man(a1-6)]Man(b1-4)GlcNAc(b1-4)[Fuc(a1-6)]GlcNAc
# Method in brief: as §1
# Man(a1-6)Man = target: Man(a1-6)Man
# Method in brief: as §1
# Man(b1-4)GlcNAc = target: Man(b1-4)GlcNAc
# Method in brief: as §1
# MurNAc(b1-4)GlcNAc = target: MurNAc(b1-4)GlcNAc
# Method in brief: as §1
# Neu5Ac(a2-3)Gal = target: Neu5Ac(a2-3)Gal
# Method in brief: as §1
# [20] = target: Neu5Ac(a2-3)Gal(b1-3)GalNAc
# Method in brief: as §1
# [21] = target: Neu5Ac(a2-3)Gal(b1-3)GalNAc(b1-3)Gal(a1-4)Gal(b1-4)Glc
# Method in brief: as §1
# [22] = target: Neu5Ac(a2-3)Gal(b1-3)GalNAc(b1-4)Gal(b1-4)Glc
# Method in brief: as §1
# [23] = target: Neu5Ac(a2-3)Gal(b1-3)GalNAc(b1-4)[Neu5Ac(a2-3)]Gal(b1-4)Glc
# Method in brief: as §1
# [24] = target: Neu5Ac(a2-3)Gal(b1-3)GalNAc(b1-4)[Neu5Ac(a2-8)Neu5Ac(a2-3)]Gal(b1-4)Glc
# Method in brief: as §1
# [25] = target: Neu5Ac(a2-3)Gal(b1-3)GalNAc6S
# Method in brief: as §1
# [26] = target: Neu5Ac(a2-3)Gal(b1-3)GlcNAc
# Method in brief: as §1
# [27] = target: Neu5Ac(a2-3)Gal(b1-3)GlcNAc(b1-2)Man
# Method in brief: as §1
# [28] = target: Neu5Ac(a2-3)Gal(b1-3)GlcNAc(b1-2)Man(a1-3)[GlcNAc(b1-4)][Neu5Ac(a2-3)Gal(b1-3)GlcNAc(b1-2)Man(a1-6)]Man(b1-4)GlcNAc(b1-4)GlcNAc
# Method in brief: as §1
# [29] = target: Neu5Ac(a2-3)Gal(b1-3)GlcNAc(b1-2)Man(a1-3)[Neu5Ac(a2-3)Gal(b1-3)GlcNAc(b1-2)Man(a1-6)]Man(b1-4)GlcNAc(b1-4)GlcNAc
# Method in brief: as §1
# [30] = target: Neu5Ac(a2-3)Gal(b1-3)GlcNAc(b1-2)[Neu5Ac(a2-3)Gal(b1-3)GlcNAc(b1-4)]Man(a1-6)[Neu5Ac(a2-3)Gal(b1-3)GlcNAc(b1-2)Man(a1-3)]Man(b1-4)GlcNAc(b1-4)GlcNAc
# Method in brief: as §1
# [31] = target: Neu5Ac(a2-3)Gal(b1-3)GlcNAc(b1-3)Gal(b1-3)GlcNAc
# Method in brief: as §1
# [32] = target: Neu5Ac(a2-3)Gal(b1-3)GlcNAc(b1-3)Gal(b1-4)GlcNAc
# Method in brief: as §1
# [33] = target: Neu5Ac(a2-3)Gal(b1-3)GlcNAc(b1-3)GalNAc
# Method in brief: as §1
binder,measurement,setting,value
B1,glycan array binding signal (z-score),[1],0.046
same,glycan array binding signal (z-score),[2],-0.031
same,glycan array binding signal (z-score),[3],-0.229
same,glycan array binding signal (z-score),[4],-0.17
same,glycan array binding signal (z-score),GlcNAc(b1-6)GalNAc,0.219
same,glycan array binding signal (z-score),[5],0.206
same,glycan array binding signal (z-score),Kdn(a2-3)Gal(b1-3)GalNAc,-0.056
same,glycan array binding signal (z-score),Kdn(a2-3)Gal(b1-3)GlcNAc,-0.201
same,glycan array binding signal (z-score),Kdn(a2-3)Gal(b1-4)Glc,1.02
same,glycan array binding signal (z-score),Kdn(a2-3)Gal(b1-4)GlcNAc,-0.248
same,glycan array binding signal (z-score),[6],0.453
same,glycan array binding signal (z-score),Kdn(a2-6)Gal(b1-4)GlcNAc,-0.073
same,glycan array binding signal (z-score),[7],-0.19
same,glycan array binding signal (z-score),[8],-0.189
same,glycan array binding signal (z-score),Man(a1-2)Man(a1-3)Man,-0.276
same,glycan array binding signal (z-score),[9],-0.345
same,glycan array binding signal (z-score),[10],-0.231
same,glycan array binding signal (z-score),[11],0.196
same,glycan array binding signal (z-score),[12],-0.397
same,glycan array binding signal (z-score),[13],-0.2
same,glycan array binding signal (z-score),[14],0.843
same,glycan array binding signal (z-score),Man(a1-3)[Man(a1-6)]Man,-0.094
same,glycan array binding signal (z-score),[15],0.045
same,glycan array binding signal (z-score),[16],0.084
same,glycan array binding signal (z-score),[17],-0.1
same,glycan array binding signal (z-score),[18],-0.2
same,glycan array binding signal (z-score),[19],-0.173
same,glycan array binding signal (z-score),Man(a1-6)Man,-0.276
same,glycan array binding signal (z-score),Man(b1-4)GlcNAc,-0.123
same,glycan array binding signal (z-score),MurNAc(b1-4)GlcNAc,-0.288
same,glycan array binding signal (z-score),Neu5Ac(a2-3)Gal,0.035
same,glycan array binding signal (z-score),[20],-0.184
same,glycan array binding signal (z-score),[21],-0.166
same,glycan array binding signal (z-score),[22],0.504
same,glycan array binding signal (z-score),[23],-0.212
same,glycan array binding signal (z-score),[24],-0.112
same,glycan array binding signal (z-score),[25],0.093
same,glycan array binding signal (z-score),[26],-0.199
same,glycan array binding signal (z-score),[27],-0.112
same,glycan array binding signal (z-score),[28],-0.25
same,glycan array binding signal (z-score),[29],-0.156
same,glycan array binding signal (z-score),[30],0.345
same,glycan array binding signal (z-score),[31],-0.267
same,glycan array binding signal (z-score),[32],-0.208
same,glycan array binding signal (z-score),[33],-0.246
